# Assay results published in PubChem BioAssay AID488969 (Vanderbilt High Throughput Screening Facility, 2010).
# The full ranking holds about 110,000 compounds; the median of “z-score” is about -0.1, and the highest 2% start at about 2. The list shows a part of the results. Active and inactive are the calls of the source.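 The calls were made as follows: active = z-score in the third read window above 3 or below -3; inactive = the rest.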
# Target: Metabotropic glutamate receptor 8 (Rattus norvegicus) (UniProt P70579)
# UniProt P70579, sequence (P70579 whole entry, looked up): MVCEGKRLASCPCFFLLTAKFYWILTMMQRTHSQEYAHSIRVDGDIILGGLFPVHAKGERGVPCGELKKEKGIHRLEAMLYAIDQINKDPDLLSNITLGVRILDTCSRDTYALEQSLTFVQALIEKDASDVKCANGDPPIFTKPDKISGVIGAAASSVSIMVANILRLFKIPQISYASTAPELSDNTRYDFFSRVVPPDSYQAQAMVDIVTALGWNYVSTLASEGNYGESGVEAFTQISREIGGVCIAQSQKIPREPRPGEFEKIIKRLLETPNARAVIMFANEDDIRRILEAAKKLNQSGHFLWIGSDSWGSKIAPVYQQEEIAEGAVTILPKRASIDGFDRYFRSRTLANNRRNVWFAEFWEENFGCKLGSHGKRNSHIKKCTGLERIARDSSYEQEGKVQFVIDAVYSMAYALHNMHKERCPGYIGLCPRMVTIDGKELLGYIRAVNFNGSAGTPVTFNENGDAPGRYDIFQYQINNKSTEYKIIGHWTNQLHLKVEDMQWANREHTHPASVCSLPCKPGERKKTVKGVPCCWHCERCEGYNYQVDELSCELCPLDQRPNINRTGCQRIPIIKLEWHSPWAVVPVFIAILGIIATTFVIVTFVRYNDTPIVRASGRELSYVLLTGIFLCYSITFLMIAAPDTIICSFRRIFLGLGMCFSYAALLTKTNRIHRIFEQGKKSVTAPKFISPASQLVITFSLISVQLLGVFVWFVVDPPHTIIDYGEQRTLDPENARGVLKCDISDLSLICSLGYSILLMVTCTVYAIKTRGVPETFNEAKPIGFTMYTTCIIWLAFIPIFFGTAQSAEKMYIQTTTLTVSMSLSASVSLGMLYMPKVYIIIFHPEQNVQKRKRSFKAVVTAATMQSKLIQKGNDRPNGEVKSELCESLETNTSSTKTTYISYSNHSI
# Test: mGluR8 Gi/Go-coupled signaling modulation – cell-based, rat, thallium flux, HTS, primary screen (AID 488969)
# Details: HEK293 rat mGluR8, GIRK (G protein-gated inwardly rectifying potassium channel) thallium flux, FluoZin2; at 10 µM; stronger effect = higher value; submaximal glutamate (EC20) added with thallium
row,Compound,z-score
1,CCOC(=O)C(NC(=O)Nc1ccc(Cl)cn1)(Oc1ccc(F)cc1)C(F)(F)F (stereo not drawn),0.888
2,Cc1cccc(-c2nnn(CC/C(N)=N/O)n2)c1,0.0988
3,CC(C)NC(=O)c1onc(CSc2ccccc2)c1C(=O)O,-0.183
4,CS(=O)(=O)c1ccc2nc(NC(=O)Nc3ccc(Cl)cc3)sc2c1,0.161
5,CCOc1ccc2c(O)csc2c1,0.211
6,Cc1c2c(nc3c(C(=O)NC4CCCCC4C)cnn13)CCCC2 (stereo not drawn),-1.98
7,O=C(CN1CCN(c2ccccc2)CC1)Nc1ccccc1C(F)(F)F,-0.0406
8,COc1ccc(C(=O)/C=C/Nc2ccc(S(=O)(=O)Nc3cccc(C(C)=O)c3)cc2)cc1,-0.777
9,S=C(NCCCc1ccccc1)Nc1ccccc1Cl,0.383
10,CCCC(=O)Nc1ccc(Oc2ccc(NC(=O)CCC)cc2)cc1,0.157
11,O=C(c1cccs1)n1cc(C(=S)N2CCOCC2)c2ccccc21,-1.57
12,COc1cccc(NC(=O)CC2SC(=Nc3ccccc3)NC2=O)c1 (stereo not drawn),-0.402
13,CC(=O)Nc1cccc(NC(=O)CSc2nnnn2C)c1,-0.0629
14,CN(C)/C(CN1CCN(C=O)CC1)=C1\N=C(c2ccccc2)OC1=O,0.0463
15,COc1ccc(OC)c2c1nc1n2CCS1,-0.152
16,O=[N+]([O-])c1ccc(Sc2nccn2Cc2ccccc2)cc1,0.0581
17,CC1CCC(NC(=O)c2ccc(CS(=O)(=O)Cc3ccccc3F)o2)CC1 (stereo not drawn),-0.656
18,CN(C)c1ccc(/C=N/NC(=S)NCc2ccccc2)cc1,-0.185
19,Cc1cc(C)c2c(C)nn(C3CCCCC3)c2n1,-0.408
20,COC(=O)C(NC(=O)c1ccccc1Cl)(Nc1ncc(S(=O)(=O)c2ccc([N+](=O)[O-])cc2)s1)C(F)(F)F (stereo not drawn),-0.242
21,O=C1CCCN1CC(CN1CCOCC1)Sc1nnnn1-c1ccccc1 (stereo not drawn),0.197
22,CCOC(=O)C(C)Sc1nc2c(cnn2-c2ccc(C)cc2)c(=O)[nH]1 (stereo not drawn),1.83
23,C=C(C)C1Cc2c(C)nn(-c3cc(C)c4ccccc4n3)c2C1 (stereo not drawn),0.162

row,Compound,z-score
1,Cc1ccccc1-c1nc(S(=O)(=O)c2ccc(Cl)cc2)c(NCCN2CCOCC2)o1,-0.166
2,COc1ccc(NC(=O)NC(C)c2ccncc2)cc1OC (stereo not drawn),active: -3.06
3,COc1cccc(-c2nc(OC(C)C)c3ccccc3n2)c1,0.988
4,C=CCOc1ccccc1/C=c1\sc2nc(=O)c(C)nn2c1=O,-0.929
5,CCOC(=O)CNC(=O)Nc1cccc(Cl)c1C,-0.0624
6,O=c1[nH]cnc2scc(-c3cccs3)c12,0.45
7,CSc1nc(-c2ccc(Cl)cc2)nn1C(=O)c1ccco1,0.0125
8,Cc1cc(NS(=O)(=O)c2ccc(NC(=S)NC(=O)c3ccccc3)cc2)no1,2.22
9,CCOC(=O)c1nnc(-c2ccccc2)o1,-0.712
10,O=C(C1=NNCC1c1ccccc1)C1CO1 (stereo not drawn),-0.32
11,CCN=C1SC(C(=O)Nc2cccc(Br)c2)CC(=O)N1CC (stereo not drawn),-0.0533
12,CC(=O)OC1CC(C)(C)N(OC(=O)c2ccc(N)cc2)C(C)(C)C1,0.0443
13,N#Cc1ccc2ccn(CC(=O)N3CCCc4ccccc43)c2c1,-0.703
14,CCOC(=O)CC(=O)CSc1nc2c(c(-c3cccs3)c1C#N)CCC2,-0.263
15,Cc1cc(C(=O)CSc2nnc3c(Cl)cc(Cl)cn23)c(C)n1C,-0.0644
16,O=C(Nc1cccnc1)c1cnc2ccccc2n1,0.415
17,Cc1nnc(-c2cccc(Br)c2)c2cn(-c3cccc(Br)c3)nc12,-0.337
18,O=C(COc1ccc(Cl)cc1)Nc1ccc2c(c1)CCC2,0.0759
19,O=C(NC1=NCCS1)c1ccncc1,-0.0616
20,O=C(c1ccc([N+](=O)[O-])s1)N1CCN(c2ccccc2)CC1,-0.0818
21,COCCNc1ncnc2c1cnn2Cc1ccc(Cl)cc1,-0.482
22,COc1ccc(C(=O)Nc2cc(C(F)(F)F)ccc2Cl)cc1OC,-0.412
23,Cc1nn(-c2ccccc2)c(C)c1/C=N/NC(=O)CSc1nc2ccccc2c(=O)n1-c1ccc(Br)cc1,0.239

row,Compound,z-score
1,COc1ccc(CNC(=O)c2ccc(C)o2)cc1,0.531
2,CCOC(=O)c1c(NC(=O)C2C3C=CC(C3)C2(C)C(=O)O)sc2c1CCCC2 (stereo not drawn),-0.0926
3,Cn1c(=O)c2cc(S(=O)(=O)N3CCC(c4ccccc4)CC3)ccc2n(C)c1=O,-0.0689
4,O=C(N/N=C/c1ccc(N2CCCCC2)o1)C(O)(c1ccccc1)c1ccccc1,-0.675
5,O=C(c1sc2cc(F)ccc2c1Cl)N1CCN(c2cccc(Cl)c2)CC1,-0.403
6,Clc1ccc(N=c2ssnc2Cl)cc1,-0.0573
7,CCOC(=O)C(C)Sc1snnc1C (stereo not drawn),0.011
8,O=C(c1cccc([N+](=O)[O-])c1)N(c1ccccn1)c1ccccn1,-0.0172
9,O=C(c1cccnc1NCc1ccccc1)N1CCOCC1,0.0863
10,CCc1nc(SCC(=O)Nc2ccc3c(c2)OCCO3)c2oc3ccccc3c2n1,0.21
11,CCCc1cc(=O)[nH]c(SCC(=O)N2N=C(c3ccc(Cl)cc3)CC2c2ccco2)n1 (stereo not drawn),-0.126
12,CC1(C)C(c2ccco2)=[N+]([O-])C2(CCCCC2=O)N1O (stereo not drawn),0.197
13,CCCCc1ccc(NC(=O)COc2ccc(C(=O)Nc3ccccc3OC)cc2)cc1,-0.367
14,O=C1CCCN1c1cc(Cl)ccc1Cl,0.195
15,CCOC(=O)C(NC(=O)Nc1ccc(O)cc1)(c1ccccc1)C(F)(F)F (stereo not drawn),-0.184
16,O=C(Nc1nccs1)c1cccc(NC(=O)C2CC2)c1,-0.0597
17,CCOc1ccc(-c2n[nH]c(C)c2-c2ccccc2OC)c(O)c1,-0.365
18,COc1cc(C2CC(=O)N3CN(Cc4ccccc4)CSC3=C2C#N)ccc1OCc1ccccc1 (stereo not drawn),-0.801
19,CC(=O)Nc1ccc(S(=O)(=O)NCC2CCC(C(=O)N3CCCCCC3)CC2)cc1 (stereo not drawn),-0.0258
20,CCOC(=O)c1cnn(-c2nc(-c3ccccc3)cs2)c1C(F)(F)F,-0.141
21,O=c1oc2ccccc2cc1-c1csc(Cc2nc(-c3ccc(Cl)cc3)cs2)n1,0.0414
22,CC(=O)NC1C(Oc2ccccc2C)OC2COC(c3ccco3)OC2C1O (stereo not drawn),-0.111
23,Cc1cccc(NC(=S)NNC(=O)Cc2ccccc2)c1,0.0541

row,Compound,z-score
1,Cc1ccc(C)c(NC(=O)C(C)CC2COCCO2)c1 (stereo not drawn),0.147
2,Cn1c(CSCc2ccc(F)cc2)nnc1SCC(=O)N1CCN(c2ccccc2)CC1,-0.4
3,Nc1cccc(-c2cc(-c3ccccc3)nc(-c3cccc(N)c3)n2)c1,-0.135
4,CCSc1nc2c(c(=O)n(C)c(=O)n2C)n1Cc1ccc(Cl)cc1,-0.345
5,Cc1cccc(C)c1NC(=O)CN(C)C(=O)C(c1ccccc1)c1ccccc1,-0.041
6,Cn1c(SCC(=O)Nc2ccc3c(c2)OCO3)nnc1-c1cnccn1,-0.985
7,CC(C)OC(=O)c1c(NC(=O)c2ccco2)sc2c1CCCC2,0.0071
8,Cc1ccccc1Cc1c(C)nc2c(C(=O)N3CCN(Cc4ccc5c(c4)OCO5)CC3)cnn2c1C,-0.336
9,COc1ccccc1Oc1nnnn1-c1ccc(C(N)=O)cc1,-0.304
10,CC(C)(C)C(=O)Nc1sc2c(c1C#N)CCCCC2,-0.474
11,CSc1nc(/C=C2\C=Nc3ccccc32)c(O)n1C,0.404
12,Cn1c(=O)n(C)c2cc(NC(=O)C(F)(F)F)ccc21,-0.389
13,C/C(N)=C(/C#N)C(=O)CSc1nc2ccccc2c(=O)n1CCCO,-0.389
14,O=c1[nH]c2cccc(Cl)c2n(CCNc2ncc(C(F)(F)F)cc2Cl)c1=O,-0.343
15,CCOC(=O)c1c(C)[nH]c(C(=O)COC(=O)[C@H](C)NC(=O)c2ccccc2Cl)c1C,-0.8
16,Cc1ccc(-c2nnn(CCC(=O)N3CCCCC3C)n2)cc1 (stereo not drawn),1.52
17,CN(C)C(=O)NC(Nc1ccc(Cl)cc1Cl)C(Cl)(Cl)Cl (stereo not drawn),-1.77
18,Cn1c(=O)cc(SCC(=O)N2CCOCC2)c2ccc(Cl)cc21,0.102
19,Cc1[nH]c2ccccc2c1C(=O)COC(=O)Cn1cnc2ccccc21,-0.295
20,O=S(=O)(Nc1ncccn1)c1ccc(Nc2ncnc3ccccc23)cc1,0.439
21,COc1ccc(C2CC(c3ccccc3)=NN2C(=O)COC(=O)c2cnc(Cl)c(Cl)c2)cc1 (stereo not drawn),0.118
22,CSc1ccc(/C=C(\C(=O)O)c2ccc(S(=O)(=O)N3CCCCC3)s2)cc1,-0.317
23,COc1ccc(O)c(/C=C(\C#N)C(=O)Nc2cccnc2)c1,-0.54

row,Compound,z-score
1,Cc1ccc(CC(=O)NC(C)CCc2ccccc2)cc1 (stereo not drawn),-0.0658
2,C=COC(=O)CSc1nc(-c2cccs2)ccc1C#N,-0.173
3,CCOC(=O)c1ccccc1NC(=O)c1c(O)c2ccccc2n(CC)c1=O,-0.929
4,NC(=O)NC(=O)CSc1nnc(-c2ccco2)n1Cc1ccccc1,-0.293
5,CCc1c(C)c2ccc(OCC(=O)OC)cc2oc1=O,-0.446
6,CC(=O)Nc1ccc(S(=O)(=O)CCC(=O)O)cc1,0.965
7,CCc1cc2c(=O)c(-c3nc4ccccc4n3C)coc2c(CN2CCOCC2)c1O,-0.0262
8,COc1ccc(C(=O)N2CCN(S(=O)(=O)c3cc(Cl)ccc3OC)CC2)cc1,-0.215
9,CN1CCN(/N=C/c2nc(-c3ccccc3Cl)n3ccccc23)CC1,-0.168
10,N#CC1(c2nc3ccccc3[nH]2)CC1c1ccc2c(c1)OCO2 (stereo not drawn),1.04
11,Cc1cc(C)cc(N=C(NO)c2cccc([N+](=O)[O-])c2)c1,-0.268
12,COc1ccccc1N1CCN(C(=O)CCCCn2c(=O)[nH]c3ccsc3c2=O)CC1,-1.61
13,O=C1/C(=C/c2ccncc2)SC(=S)N1C1CCCCC1,1.43
14,CC(C)=C1SC(N2CCOCC2)=NC1=O,-0.129
15,COc1ccc(NC(=O)C(C)N2c3cccc4cccc(c34)S2(=O)=O)cc1 (stereo not drawn),-0.484
16,O=C(NC(=S)Nc1cccc(Cl)c1N1CCCCC1)c1cccs1,2.55
17,Cc1nc(CN2CCN(C(=O)NC3(c4ccccc4)CC3)CC2)cs1,-0.25
18,Cc1c(C(=O)Nc2nc3ccccc3[nH]2)oc2c(Cl)cccc12,0.503
19,COCCN(C(=O)CNC(=O)c1ccco1)C(C(=O)NC1CCCCC1)c1cccs1 (stereo not drawn),-0.0787
20,CNC(=O)C1CC(=O)N(Cc2ccc3c(c2)OCO3)C(=Nc2ccc(F)cc2)S1 (stereo not drawn),-0.565
21,CC1(C)N=C(/C=N/O)CN1O,0.0569
